Reference: PubChem BioAssay AID504339 (National Center for Advancing Translational Sciences (NCATS), 2011)
In all, about 390,000 compounds went through this assay and about 17,000 (4.4%) were called active. This list was built around the results that the source calls inconclusive (neither active nor inactive); the mix of calls is not that of the screen. Calls come from the whole dose curve; as a rule, active = well fitted inhibition curve with a large enough effect; inconclusive = small, poorly fitted or top-dose-only effect; inactive = no such curve, though single readings can be large or run the other way. A potency beside an inconclusive call is a rough fit, not a confirmed value.
% is set by controls: 0 for no effect and ±100 for the full control effect; potency is the fitted concentration of half-maximal effect; tags give direction and shape of the fitted curve.
Note: nearly all actives have a fitted effect of over 50% in size.

The compounds below were run against Lysine-specific demethylase 4A (Homo sapiens) (UniProt O75164) (assay: qHTS Assay for Inhibitors of JMJD2A-Tudor Domain). Settings: AlphaScreen JMJD2A-Tudor / H3K4me3 peptide binding; activity change, negative = inhibition: at 114 µM (top of the series).
Sequence of UniProt O75164 (O75164 whole entry, looked up, the tested form may be a part): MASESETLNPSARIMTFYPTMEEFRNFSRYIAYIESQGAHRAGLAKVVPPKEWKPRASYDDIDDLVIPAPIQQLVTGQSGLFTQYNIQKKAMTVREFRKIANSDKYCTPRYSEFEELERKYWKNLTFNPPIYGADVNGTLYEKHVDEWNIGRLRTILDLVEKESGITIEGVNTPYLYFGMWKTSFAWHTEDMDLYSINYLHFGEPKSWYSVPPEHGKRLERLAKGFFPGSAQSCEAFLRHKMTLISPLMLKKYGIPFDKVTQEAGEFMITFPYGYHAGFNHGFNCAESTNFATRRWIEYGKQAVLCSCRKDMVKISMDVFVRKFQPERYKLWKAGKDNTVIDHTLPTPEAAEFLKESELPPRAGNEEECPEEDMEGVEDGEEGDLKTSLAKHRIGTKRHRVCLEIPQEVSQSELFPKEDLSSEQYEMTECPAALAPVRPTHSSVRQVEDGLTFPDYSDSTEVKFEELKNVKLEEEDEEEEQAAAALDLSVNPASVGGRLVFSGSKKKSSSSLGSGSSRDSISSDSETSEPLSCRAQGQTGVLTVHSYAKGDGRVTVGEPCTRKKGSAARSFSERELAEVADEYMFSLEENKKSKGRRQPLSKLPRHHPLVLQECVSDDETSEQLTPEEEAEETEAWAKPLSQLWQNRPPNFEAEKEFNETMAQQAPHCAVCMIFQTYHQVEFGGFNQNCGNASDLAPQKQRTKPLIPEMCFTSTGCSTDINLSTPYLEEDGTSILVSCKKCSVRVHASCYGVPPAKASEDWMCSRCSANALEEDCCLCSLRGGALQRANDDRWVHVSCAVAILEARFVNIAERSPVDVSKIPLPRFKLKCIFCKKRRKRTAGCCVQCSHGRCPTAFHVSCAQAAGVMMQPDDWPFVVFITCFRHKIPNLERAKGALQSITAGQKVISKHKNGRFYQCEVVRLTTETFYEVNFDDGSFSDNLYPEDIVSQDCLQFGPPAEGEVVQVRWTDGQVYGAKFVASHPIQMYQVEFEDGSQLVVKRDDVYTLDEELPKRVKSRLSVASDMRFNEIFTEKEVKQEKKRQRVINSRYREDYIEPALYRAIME
In the case of Cc1nn(S(=O)(=O)c2ccc(C(C)(C)C)cc2)c(C)c1S(=O)(=O)N1CCOCC1, the Potency was inconclusive: 89.1 µM [inhibitor, single point]. With O=S(=O)(c1cccc(-c2csc(N/N=C/c3ccco3)n2)c1)N1CCOCC1 the Potency was inconclusive: 39.8 µM [inhibitor, partial curve]. With Cc1ccc(NC(=O)NC2CCN(CC(=O)Nc3nccs3)CC2)cc1 the Potency was inconclusive: 12.6 µM [inhibitor, partial curve]. CCOC(=O)c1c(C)[nH]c(C)c1C(=O)COC(=O)CNC(=O)c1ccc(OCC)cc1 was tested, and the activity change, negative = inhibition was inactive: -7.63% [at 11.4 µM]. Cc1ccc(Nc2nc(N)nc(CN3CCCCCC3)n2)cc1 was tested, and the Potency was active: 50.1 µM. Cc1ccc(Oc2cc(NC(=O)CCCn3nc(C)c([N+](=O)[O-])c3C)cc([N+](=O)[O-])c2)cc1 was tested, and the Potency was inconclusive: 10 µM [inhibitor, full curve, poor fit]. With COC(=O)/C=C/c1cnc[nH]1 the Potency was inconclusive: 70.8 µM [inhibitor, single point]. O=C(NCCCCc1ccccc1)C12CN(Cc3ccccc3)CC1C(c1ccc([N+](=O)[O-])cc1)=NO2 (stereo not drawn) was tested, and the Potency was inconclusive: 31.6 µM [inhibitor, partial curve]. In the case of O=C(CCNS(=O)(=O)c1cccc(Cl)c1)OCC(=O)N1CCN(C(=O)c2ccco2)CC1, the Potency was inconclusive: 28.2 µM [inhibitor, full curve, poor fit]. For CCCn1c(N)c(C(=O)CSc2nnnn2-c2ccc(O)cc2)c(=O)n(C)c1=O, the Potency was “inactive”. For COC(=O)C[C@H]1c2cc(F)ccc2S(=O)(=O)N1c1ccc(N(C)C)cc1, the Potency was inconclusive: 79.4 µM [inhibitor, partial curve]. With O=C1c2ccccc2C(=O)C1c1ccc(Cl)cc1 the Potency was “inactive”. For CSc1ccc(CN2CCN(Cc3ccc([N+](=O)[O-])cc3)CC2)cc1, the Potency was inconclusive: 15.8 µM [inhibitor, partial curve, poor fit]. Cc1cc(NC(=O)CCCn2cnc([N+](=O)[O-])n2)no1 was tested, and the activity change, negative = inhibition was inactive: -19.9% [at 11.4 µM]. CNC(=S)N/N=C/c1cn(CCOc2ccc(OC)cc2)c2ccccc12 was tested, and the Potency was inconclusive: 44.7 µM [inhibitor, single point]. With CCCCn1c(SCC(=O)c2ccc3c(c2)OCCO3)nnc1-c1ccoc1C the Potency was inconclusive: 22.4 µM [inhibitor, full curve]. With COc1cc(/C=C2/SC(=O)NC2=O)ccc1OC(=O)c1ccco1 the Potency was “inactive”. CC(=O)c1c(C)[nH]c(C2=NNC(=NC(C)(C)C)SC2)c1C was tested, and the Potency was “inactive”. With Clc1ccc(NC2(c3nnnn3C3CCCCC3)CCCCC2)cc1 the Potency was inconclusive: 20 µM [inhibitor, partial curve]. For C=C(C)Cn1c(=O)c2c(nc3n2CCN3c2cc(C)cc(C)c2)n(C)c1=O, the Potency was inconclusive: 50.1 µM [inhibitor, partial curve]. In the case of Cc1cc2c(cc1S(=O)(=O)N1CCN(c3cccc(C(F)(F)F)c3)CC1)OCC(=O)N2, the Potency was inconclusive: 20 µM [inhibitor, full curve]. In the case of O=C1NC(=S)S/C1=C\C=C\c1ccc([N+](=O)[O-])o1, the Potency was active: 15.8 µM. For COc1ccc(-c2ccn(-c3cccc(F)n3)n2)cc1, the Potency was inconclusive: 63.1 µM [inhibitor, partial curve, poor fit]. Cc1cc(C(=O)N/N=C/c2ccc(O)c(O)c2O)c(C)n1-c1ccccc1 was tested, and the Potency was active: 56.2 µM. In the case of O=C(CSc1nccn(-c2ccc(F)c(F)c2)c1=O)NC1CCCC1, the Potency was “inactive”. COC(=O)c1[nH]c(C)c(/C(O)=C2\C(=O)C(=O)N(CCN(C)C)C2c2cccs2)c1C (stereo not drawn) was tested, and the Potency was “inactive”. In the case of CCn1cnc2cc(NCc3ccc(C)cc3)ccc21, the Potency was inconclusive: 50.1 µM [inhibitor, partial curve]. In the case of CCOC(=O)N1CCC(Nc2c(NCCCN3CCN(c4ccc(OC)cc4)CC3)c(=O)c2=O)CC1, the Potency was inconclusive: 79.4 µM [inhibitor, partial curve]. In the case of CCN1C(=NCCc2ccccn2)N[C@@H](c2cccc(F)c2)C(C(=O)OC)=C1C, the Potency was inconclusive: 25.1 µM [inhibitor, single point]. In the case of CCC1CCCCN1S(=O)(=O)c1ccc(C(=O)N(CCCN(C)C)c2nc3cc4c(cc3s2)OCO4)cc1 (stereo not drawn), the Potency was inconclusive: 31.6 µM [inhibitor, partial curve]. For CC(C)NC(=O)N(C)C[C@H]1Oc2c(NC(=O)Cc3ccccc3)cccc2C(=O)N([C@H](C)CO)C[C@@H]1C, the Potency was inconclusive: 56.2 µM [inhibitor, partial curve]. In the case of CCOC(=O)c1cccc(C2=CC(=O)C[C@H](c3ccc(OC)c(OC)c3)C2)c1, the Potency was inconclusive: 56.2 µM [inhibitor, partial curve]. O=c1c2c3c(sc2ncn1/N=C/c1ccco1)CCCC3 was tested, and the Potency was “inactive”. With CCC1=NC(c2ccc(OC)c(OC)c2)N(O)C1(C)C (stereo not drawn) the Potency was inconclusive: 15.8 µM [inhibitor, full curve, poor fit]. Cc1ccn2c(Nc3ccccc3C)c(-c3ccc(N4CCOCC4)cc3)nc2c1 was tested, and the Potency was active: 44.7 µM. In the case of O=C(N/N=C/C=C\c1ccccc1[N+](=O)[O-])c1ccccn1, the Potency was “inactive”. C=CCNC(=S)/C(=C(\[O-])c1ccc(Cl)cc1)[n+]1ccccc1 was tested, and the Potency was “inactive”. In the case of CC/C(=N\NC(=S)NC(C)C)c1ccc(OC(F)F)cc1, the Potency was inconclusive: 50.1 µM [inhibitor, partial curve]. With O=C(Nc1nnc(SCc2ccc(F)cc2)s1)C1CC(=O)N(c2ccc3c(c2)OCCO3)C1 (stereo not drawn) the Potency was inconclusive: 22.4 µM [inhibitor, full curve]. CN(N)c1ccc2c(C(F)(F)F)cc(C(F)(F)F)nc2n1 was tested, and the Potency was inconclusive: 22.4 µM [inhibitor, partial curve]. For O=C1/C(=C/c2cccs2)SC(=S)N1C1CCS(=O)(=O)C1 (stereo not drawn), the Potency was inconclusive: 31.6 µM [inhibitor, full curve]. In the case of CCOc1cc(N2CCOCC2)c(OCC)cc1NC(=O)c1ccccc1, the Potency was “inactive”. In the case of CCOC(=O)/C(=N\Nc1ccc(Br)cc1)N1CCN(c2ccccc2OC)CC1, the Potency was inconclusive: 31.6 µM [inhibitor, full curve].
